Experimental findings from publication PMC8125308 are described below.

Protein sequences, listed by entry. Tags and fused reporters are not part of them. Lines headed by an entry give the natural chain unless they say otherwise; changes in a name come on top.
UniProt P51149: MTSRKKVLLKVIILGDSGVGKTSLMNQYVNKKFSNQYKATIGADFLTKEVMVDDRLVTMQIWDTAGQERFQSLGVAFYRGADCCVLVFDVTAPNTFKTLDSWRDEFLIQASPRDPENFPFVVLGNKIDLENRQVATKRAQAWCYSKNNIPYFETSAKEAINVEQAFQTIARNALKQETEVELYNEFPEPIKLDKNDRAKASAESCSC
UniProt P08670: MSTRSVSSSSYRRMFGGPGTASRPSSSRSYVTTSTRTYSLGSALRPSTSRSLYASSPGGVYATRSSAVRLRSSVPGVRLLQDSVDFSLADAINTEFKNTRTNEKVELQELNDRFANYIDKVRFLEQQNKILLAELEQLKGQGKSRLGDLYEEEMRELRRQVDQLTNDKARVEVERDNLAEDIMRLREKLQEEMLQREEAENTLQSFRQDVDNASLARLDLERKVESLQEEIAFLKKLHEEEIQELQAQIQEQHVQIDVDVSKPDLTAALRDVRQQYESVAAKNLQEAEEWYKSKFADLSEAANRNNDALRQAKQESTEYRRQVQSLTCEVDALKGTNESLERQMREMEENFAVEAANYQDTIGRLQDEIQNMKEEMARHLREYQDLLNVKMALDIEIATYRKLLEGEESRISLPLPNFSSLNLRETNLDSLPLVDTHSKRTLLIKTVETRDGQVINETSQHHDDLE

The target in assay [1] is His-tagged RAB7A wild type (UniProt P51149). The assay can be described thus: pull-down; 20 µg His-tagged RAB7A bound to Ni-NTA resin, incubated 1 h at 4 °C with total extracts of HeLa cells overexpressing HA-tagged vimentin; blots with anti-HA and anti-RAB7A; only the target purified.
The target in assay [2] is HA-tagged RAB7A wild type (UniProt P51149). The assay can be described thus: co-IP; HeLa cells co-expressing HA-tagged RAB7A and myc-tagged vimentin; lysis in 0.5% NP-40, 25 mM Tris pH 7.5, 100 mM NaCl; anti-HA resin, 1 h at 4 °C; blots with anti-myc and anti-HA.
A further assay deals with HA-tagged RAB7A Y183F (UniProt P51149). The description is as above.

Results are given in words; binding and its absence hold for the method and conditions named. In cells and extracts the contact can be indirect. Some binding calls cover weakened binding; strength is not graded here.

For “HA-tagged vimentin (from UniProt P08670 1-466)”, the binding result in assay [1] is listed as “binds”.
“myc-tagged vimentin 1-141 (from UniProt P08670 1-141) (domain or fragment)”: the binding entry in assay [2] was “binds”.
In the case of “myc-tagged vimentin 1-256 (from UniProt P08670 1-256) (domain or fragment)”, the binding entry in assay [2] is listed as “binds”.
For “myc-tagged vimentin 92-256 (from UniProt P08670 92-256) (domain or fragment)”, in assay [2], the binding entry is reported as “binds”.
As for “myc-tagged vimentin 142-256 (from UniProt P08670 142-256) (domain or fragment)”, the binding entry in assay [2] is given as “binds”.
With “myc-tagged vimentin 256-411 (from UniProt P08670 256-411) (domain or fragment)”, the binding result in assay [2] is recorded as “no binding”.
Turning to “myc-tagged vimentin 256-466 (from UniProt P08670 256-466) (domain or fragment)”, the binding entry in assay [2] is on record as “no binding”.
For “myc-tagged vimentin wild type (from UniProt P08670 1-466)”, the binding entry with HA-tagged RAB7A Y183F was “no binding”.
